Format in all cases: cell-based
One test relates to Citrobacter diversus. In words: MIC against Gram-negative bacteria: Citrobacter diversus. How it is done:
(§1) 1. Gram-negative bacteria, such as E. coli BL21, Pseudomonas aeruginosa, Klebsiella pneumonia, Enterobacter cloacae, Aeromonas hydrophila, Citrobacter diversus, Moraxella catarrhalis, Proteus mirabilis, Proteus vulgaris, Serratia marcescens, etc were streaked on solid LB medium and cultured respectively. Then, typical clones were picked, inoculated into common liquid LB medium respectively, and cultured at 37° C. with shaking at 185 rpm until the McFarland specific turbidity was 0.5. The bacterial culture of each of Gram-negative bacteria was centrifuged at 4000×g for 3 min, the supernatant was discarded, and the thalli were resuspended with fresh LB medium.
(§2) 2. The above-mentioned bacterial suspensions were diluted and inoculated into 96-well plates with the final concentration of the bacterial suspension being 5×10^5 CFU/mL per well.
(§3) 3. Each of the purified human-originated EGF domain proteins (PRT1 to PRT1498 in Table 1) was added to each of the above wells and subjected to two-fold serial dilution in concentration. Three parallel wells were set up for each concentration in the gradient.
(§4) 4. The above-mentioned 96-well plates were placed and cultured at 37° C. in shaking incubator shaking at 175 rpm. […] The minimal inhibitory concentration MIC is defined as the lowest concentration of the recombinant protein at which there is no growth of the bacteria.

The subject of the next test is Klebsiella pneumonia. Description: MIC against Gram-negative bacteria: Klebsiella pneumonia. How it is done: as §1, §2, §3, §4
Another test has as its system Pseudomonas aeruginosa. In words: MIC against Gram-negative bacteria: Pseudomonas aeruginosa. As to the method: as §1, §2, §3, §4
Another test deals with Enterobacter cloacae. In words: MIC against Gram-negative bacteria: Enterobacter cloacae. How it is done:
as §1, §2, §3, §4

For a further test, the system named is E. coli DH5α. Description: Antibacterial activity: MIC and growth curve against E. coli DH5α in 96-well plate. As to conditions: minimal inhibitory concentration against E. coli DH5α, 5×10^5 CFU/mL, 37° C., judged after 8 h. How it is done: 1. E. coli DH5α was exemplified. E. coli DH5α was streaked and cultured on LB solid medium. Then, a typical clone was picked and inoculated into common LB liquid medium, cultured at 37° C. with shaking at 185 rpm until the logarithmic growth phase was reached (OD600 of about 0.5). The bacterial culture was centrifuged at 4000×g for 3 min, the supernatant was discarded, and the thalli were resuspended with fresh LB medium.
2. The above-mentioned bacterial suspension was diluted and inoculated into a 96-well plate with the total volume of 100 μL per well and a bacterial count of 5×10^5 CFU/mL.
3. The recombinant protein hF VII-EGF1 was added to the above-mentioned wells with the final protein concentration in the well of the highest protein concentration being 50 μg/mL. Basing on this final concentration, a two-fold serial dilution was performed till a protein concentration gradient consisting of 50, 25, and 12.5 μg/mL was set up. Three parallel wells were set up for each concentration in the gradient.
4. The above-mentioned 96-well plate was placed and cultured at 37° C. in shaking incubator shaking at 175 rpm. Samples were taken every 30 min, the absorbance values were determined at 600 nm wavelength under a ultra violet spectrophotometer, and an inhibition curve was plotted. […] The minimal inhibitory concentration MIC is defined as the lowest concentration of the recombinant protein at which there is no growth of the bacteria.
According to the experimental procedures in Example 14, the minimal inhibitory concentrations (MIC, μg/mL) of the other human-originated EGF domain proteins (PRT2 to PRT1498 in Table 1) for E. coli DH5α were determined.

The test system of another test is E. coli BL21. In words: MIC against Gram-negative bacteria: E. coli BL21. As to the method:
as §1, §2, §3, §4

Another test has as its system Proteus vulgaris. Description: MIC against Gram-negative bacteria: Proteus vulgaris. How it is done:
as §1, §2, §3, §4

A further test concerns Aeromonas hydrophila. Description: MIC against Gram-negative bacteria: Aeromonas hydrophila. As to the method: as §1, §2, §3, §4
A further test has as its system Moraxella catarrhalis. In words: MIC against Gram-negative bacteria: Moraxella catarrhalis. How it is done:
as §1, §2, §3, §4

Another test relates to Proteus mirabilis. Description: MIC against Gram-negative bacteria: Proteus mirabilis. As to the method: as §1, §2, §3, §4
The test system of the next test is Serratia marcescens. In words: MIC against Gram-negative bacteria: Serratia marcescens. How it is done: as §1, §2, §3, §4
The mark [1] stands for this setting: C. diversus, 10 h cultivation at 37° C.
Setting [2] is: K. pneumonia, 10 h cultivation at 37° C.
Setting [3] is: P. aeruginosa, 10 h cultivation at 37° C.
Setting [4] is: E. cloacae, 10 h cultivation at 37° C.
Setting [5] is: E. coli BL21, 10 h cultivation at 37° C.
Setting [6] is: P. vulgaris, 10 h cultivation at 37° C.
Setting [7] is: A. hydrophila, 10 h cultivation at 37° C.
[8] abbreviates: M. catarrhalis, 10 h cultivation at 37° C.
The mark [9] stands for this setting: P. mirabilis, 10 h cultivation at 37° C.
[10] abbreviates: S. marcescens, 10 h cultivation at 37° C.
The mark [11] stands for this setting: 96-well plate, 5×10^5 CFU/mL, 37° C., 10 h.

This is an account of results in US9833497B2, “Human originated EGF domain proteins and use of the same” (CHENGDU SOURCEBIO LIMITED-LIABILITY COMPANY, priority 2013, dated 2017).

As for “PRT231 (DIDECTEMCPINSTCTNTPGSYFCTCHPGFAPSNGQLNFTDQGVECR; listed as Homo sapiens)”, the “MIC (μg/mL) C. diversus” value with Citrobacter diversus (C. diversus, 10 h cultivation at 37° C., 5×10^5 CFU/mL) amounted to 12.5 µg/mL. In addition, in the test with Klebsiella pneumonia (K. pneumonia, 10 h cultivation at 37° C., 5×10^5 CFU/mL), the “MIC (μg/mL) K. pneumonia” value came out at 50 µg/mL. Also, the “MIC (μg/mL) P. aeruginosa” value against Pseudomonas aeruginosa (P. aeruginosa, 10 h cultivation at 37° C., 5×10^5 CFU/mL) is 12.5 µg/mL. In the test with Enterobacter cloacae (E. cloacae, 10 h cultivation at 37° C., 5×10^5 CFU/mL), the “MIC (μg/mL) E. cloacae” value amounted to 12.5 µg/mL. In the test on E. coli DH5α, this substance had an MIC of 12.5 µg/mL. For the same substance, the “MIC (μg/mL) E. coli BL21” value against E. coli BL21 (E. coli BL21, 10 h cultivation at 37° C., 5×10^5 CFU/mL) turned out to be 50 µg/mL. Further, the “MIC (μg/mL) P. vulgaris” value in the test on Proteus vulgaris (P. vulgaris, 10 h cultivation at 37° C., 5×10^5 CFU/mL) worked out at 25 µg/mL. For the same substance, the “MIC (μg/mL) A. hydrophila” value against Aeromonas hydrophila (A. hydrophila, 10 h cultivation at 37° C., 5×10^5 CFU/mL) was 25 µg/mL. Further, the “MIC (μg/mL) M. catarrhalis” value against Moraxella catarrhalis (M. catarrhalis, 10 h cultivation at 37° C., 5×10^5 CFU/mL) was 25 µg/mL. For the same substance, the “MIC (μg/mL) P. mirabilis” value in the test on Proteus mirabilis (P. mirabilis, 10 h cultivation at 37° C., 5×10^5 CFU/mL) stood at 12.5 µg/mL. For the same substance, the “MIC (μg/mL) S. marcescens” value against Serratia marcescens (S. marcescens, 10 h cultivation at 37° C., 5×10^5 CFU/mL) came out at 12.5 µg/mL.
Consider “PRT1010 (EIDPCHSQPCFHGGTCEATAGSPLGFICHCPKGFEGPTCS; listed as Homo sapiens)”, for which the MIC in the test on Citrobacter diversus (setting [1]) was determined as 50 µg/mL; in the test with Klebsiella pneumonia (setting [2]), 12.5 µg/mL; in the test with Pseudomonas aeruginosa (setting [3]) it was 50 µg/mL; against Enterobacter cloacae (setting [4]) it was 50 µg/mL; in the test on E. coli DH5α, 50 µg/mL; in the test with E. coli BL21 (setting [5]), 12.5 µg/mL. The MIC in the test on Proteus vulgaris (setting [6]) worked out at 25 µg/mL; against Aeromonas hydrophila (setting [7]) it was 12.5 µg/mL; in the test with Moraxella catarrhalis (setting [8]) it was 25 µg/mL; against Proteus mirabilis (setting [9]), 12.5 µg/mL; with Serratia marcescens (setting [10]) it was 50 µg/mL.
For “PRT970 (DVDECAGPAPCGPHGICTNLAGSFSCTCHGGYTGPSCD; listed as Homo sapiens)”, the MIC with Citrobacter diversus (setting [1]) was found to be 25 µg/mL; in the test on Klebsiella pneumonia (setting [2]), 25 µg/mL; in the test on Pseudomonas aeruginosa (setting [3]), 12.5 µg/mL; in the test on Enterobacter cloacae (setting [4]) it was 50 µg/mL; with E. coli DH5α, 50 µg/mL; against E. coli BL21 (setting [5]), 25 µg/mL. In addition, the MIC came out at 12.5 µg/mL against Proteus vulgaris (setting [6]); 12.5 µg/mL in the test with Aeromonas hydrophila (setting [7]); 50 µg/mL against Moraxella catarrhalis (setting [8]); 25 µg/mL against Proteus mirabilis (setting [9]); 25 µg/mL in the test with Serratia marcescens (setting [10]).
Turning to “PRT911 (NVDDCNPPVDPVSRSPKCFNNGTCVDQVGGYSCTCPPGFVGERCE; listed as Homo sapiens)”, the MIC against Citrobacter diversus (setting [1]) worked out at 50 µg/mL; in the test with Klebsiella pneumonia (setting [2]), 50 µg/mL; against Pseudomonas aeruginosa (setting [3]) it was 25 µg/mL; in the test on Enterobacter cloacae (setting [4]) it was 25 µg/mL; against E. coli DH5α, 12.5 µg/mL; against E. coli BL21 (setting [5]) it was 12.5 µg/mL. Besides, the MIC in the test with Proteus vulgaris (setting [6]) came to 12.5 µg/mL; in the test on Aeromonas hydrophila (setting [7]) it was 12.5 µg/mL; in the test on Moraxella catarrhalis (setting [8]), 12.5 µg/mL; against Proteus mirabilis (setting [9]), 50 µg/mL; against Serratia marcescens (setting [10]), 50 µg/mL.
With “PRT623 (CKCNGHASECGPDVAGQLACRCQHNTTGTDCERCLPFFQDRPWARGTAEAAHECLP; listed as Homo sapiens)”, the “MIC C. diversus” value in the test with Citrobacter diversus (setting [11]) turned out to be 12.5 µg/mL. For the same substance, the “MIC K. pneumonia” value in the test on Klebsiella pneumonia (setting [11]) came out at 12.5 µg/mL. Moreover, in the test with Pseudomonas aeruginosa (setting [11]), the “MIC P. aeruginosa” value turned out to be 12.5 µg/mL. In the test on Enterobacter cloacae (setting [11]), the “MIC E. cloacae” value amounted to 12.5 µg/mL. Further, the minimum inhibitory concentration (MIC) in the test with E. coli DH5α is 12.5 µg/mL. Also, in the test on E. coli BL21 (setting [11]), the “MIC E. coli BL21” value amounted to 12.5 µg/mL. Moreover, the “MIC P. vulgaris” value in the test with Proteus vulgaris (setting [11]) was 25 µg/mL. In the test with Aeromonas hydrophila (setting [11]), the “MIC A. hydrophila” value stood at 12.5 µg/mL. The “MIC M. catarrhalis” value in the test with Moraxella catarrhalis (setting [11]) turned out to be 50 µg/mL. Moreover, the “MIC P. mirabilis” value in the test on Proteus mirabilis (setting [11]) was determined as 12.5 µg/mL. Moreover, in the test with Serratia marcescens (setting [11]), the “MIC S. marcescens” value was 50 µg/mL.
